Test results published in the supplement of paper PMC4604168 (melanoma cell lines).
This is one part of the list. Most values come without repeats; read them as rough.

Experiments:
Experiment in all cases: cell count relative to DMSO control; melanoma cells; higher = more viable cells
Conditions in all cases: library dose: standard library concentration; 72 h
SkMel28 = tested on: SkMel28
SkMel2 = tested on: SkMel2
SkMel30 = tested on: SkMel30
SkMel5 = tested on: SkMel5
UACC257 = tested on: UACC257
UACC62 = tested on: UACC62
WM115 = tested on: WM115
WM1716 = tested on: WM1716
WM1745 = tested on: WM1745
WM3526 = tested on: WM3526
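Further: cells treated in 1,536-well plates, then fixed and DAPI-stained, with nuclei counted from automated high-throughput microscope images.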

Row | Structure (SMILES) | cell count (SkMel28) [%] | cell count (SkMel2) [%] | cell count (SkMel30) [%] | cell count (SkMel5) [%] | cell count (UACC257) [%] | cell count (UACC62) [%] | cell count (WM115) [%] | cell count (WM1716) [%] | cell count (WM1745) [%] | cell count (WM3526) [%]
1 | COc1cc([C@@H]2c3cc4c(cc3[C@@H](O[C@@H]3O[C@@H]5CO[C@@H](C)O[C@H]5[C@H](O)[C@H]3O)[C@H]3COC(=O)[C@H]23)OCO4)cc(OC)c1O [etoposide] + Nc1cccc2c1CN(C1CCC(=O)NC1=O)C2=O [lenalidomide] (first compound 0.1 µM, partner dose 5 µM) | 72.8 | 69.4 | 76.8 | 75.7 | 90.6 | 55.5 | 67.9 | 72.2 | 81.9 | 84.3
2 | C[C@]1(O)C[C@@H](c2nc(-c3ccc4ccc(-c5ccccc5)nc4c3)c3c(N)nccn32)C1 + OCCn1cc(-c2cnc3nnn(Cc4ccc5ncccc5c4)c3n2)cn1 [PF04217903] (first compound 2 µM, partner dose 5 µM) | 109 | 65.8 | 110 | 67.8 | 99.6 | 108 | 90.9 | 96.1 | 56.7 | 77.1
3 | Cn1cnc2c(F)c(Nc3ccc(Br)cc3Cl)c(C(=O)NOCCO)cc21 [selumetinib] + C[C@@H](Oc1cc(-c2cnn(C3CCNCC3)c2)cnc1N)c1c(Cl)ccc(F)c1Cl [Crizotinib] (first compound 0.075 µM, partner dose 1 µM) | 48.2 | 43.3 | 53.2 | 60.2 | 80.4 | 60.4 | 38.3 | 60.3 | 48.6 | 42.7
4 | C[C@]1(O)C[C@@H](c2nc(-c3ccc4ccc(-c5ccccc5)nc4c3)c3c(N)nccn32)C1 + Nc1ccn([C@@H]2O[C@H](CO)[C@@H](O)C2(F)F)c(=O)n1 [gemcitabine] (first compound 2 µM, partner dose 0.002 µM) | 79.3 | 77.4 | 90 | 65.3 | 96.3 | 79.8 | 94.2 | 61.4 | 45.8 | 82.2
5 | C[C@]1(O)C[C@@H](c2nc(-c3ccc4ccc(-c5ccccc5)nc4c3)c3c(N)nccn32)C1 + CC(C)C[C@H](NC(=O)[C@H](Cc1ccccc1)NC(=O)c1cnccn1)B(O)O [Bortezomib] (first compound 2 µM, partner dose 0.005 µM) | 29.9 | 49.1 | 37 | 23.5 | 73.7 | 47.8 | 23.6 | 14.1 | 17.9 | 26.4
6 | Cn1cnc2c(F)c(Nc3ccc(Br)cc3Cl)c(C(=O)NOCCO)cc21 [selumetinib] + C[C@]1(O)C[C@@H](c2nc(-c3ccc4ccc(-c5ccccc5)nc4c3)c3c(N)nccn32)C1 [OSI906] (first compound 0.075 µM, partner dose 2 µM) | 32.8 | 15.3 | 40.9 | 73.2 | 87.1 | 51.2 | 99.7 | 79.8 | 71.1 | 29.9
7 | Cn1cnc2c(F)c(Nc3ccc(Br)cc3Cl)c(C(=O)NOCCO)cc21 [selumetinib] + CN(C)S(=O)(=O)c1ccc2c(c1)/C(=C/c1cc3c([nH]1)CCCC3)C(=O)N2 [SU6656] (first compound 0.075 µM, partner dose 2 µM) | 44 | 41.4 | 66.7 | 68.8 | 79.7 | 70.1 | 50.9 | 68.8 | 44.2 | 44.9
8 | COc1cc([C@@H]2c3cc4c(cc3[C@@H](O[C@@H]3O[C@@H]5CO[C@@H](C)O[C@H]5[C@H](O)[C@H]3O)[C@H]3COC(=O)[C@H]23)OCO4)cc(OC)c1O [etoposide] + NC(=O)c1ccc(N(C(N)=O)c2c(F)cccc2F)nc1-c1ccc(F)cc1F [VX702] (first compound 0.1 µM, partner dose 2 µM) | 95.3 | 100 | 108 | 86.3 | 104 | 74.2 | 84.7 | 72.9 | 86.6 | 107
9 | COc1cc([C@@H]2c3cc4c(cc3[C@@H](O[C@@H]3O[C@@H]5CO[C@@H](C)O[C@H]5[C@H](O)[C@H]3O)[C@H]3COC(=O)[C@H]23)OCO4)cc(OC)c1O [etoposide] + CC(=O)c1c(C)c2cnc(Nc3ccc(N4CCNCC4)cn3)nc2n(C2CCCC2)c1=O [palbociclib] (first compound 0.1 µM, partner dose 0.2 µM) | 41 | 47.4 | 60.6 | 59.8 | 49.9 | 51.3 | 49.3 | 33.9 | 67.6 | 60.4
10 | COc1cc([C@@H]2c3cc4c(cc3[C@@H](O[C@@H]3O[C@@H]5CO[C@@H](C)O[C@H]5[C@H](O)[C@H]3O)[C@H]3COC(=O)[C@H]23)OCO4)cc(OC)c1O [etoposide] + OCCn1cc(-c2cnc3nnn(Cc4ccc5ncccc5c4)c3n2)cn1 [PF04217903] (first compound 0.1 µM, partner dose 5 µM) | 89.7 | 74.6 | 107 | 84.8 | 89.3 | 80.4 | 69.6 | 58.6 | 87 | 99.6
11 | COc1cc([C@@H]2c3cc4c(cc3[C@@H](O[C@@H]3O[C@@H]5CO[C@@H](C)O[C@H]5[C@H](O)[C@H]3O)[C@H]3COC(=O)[C@H]23)OCO4)cc(OC)c1O [etoposide] + COc1ccc(C2=N[C@@H](c3ccc(Cl)cc3)[C@@H](c3ccc(Cl)cc3)N2C(=O)N2CCNC(=O)C2)c(OC(C)C)c1 [Nutlin-3] (first compound 0.1 µM, partner dose 0.5 µM) | 62.4 | 65 | 107 | 73.4 | 78.9 | 57.4 | 91.9 | 51.9 | 80.2 | 97.8
12 | COc1cc([C@@H]2c3cc4c(cc3[C@@H](O[C@@H]3O[C@@H]5CO[C@@H](C)O[C@H]5[C@H](O)[C@H]3O)[C@H]3COC(=O)[C@H]23)OCO4)cc(OC)c1O [etoposide] + Cc1nc(Nc2ncc(C(=O)Nc3c(C)cccc3Cl)s2)cc(N2CCN(CCO)CC2)n1 [dasatanib] (first compound 0.1 µM, partner dose 0.02 µM) | 34.9 | 66 | 89.5 | 47 | 77.4 | 58.9 | 48 | 47.3 | 36.9 | 71.7
13 | C[C@]1(O)C[C@@H](c2nc(-c3ccc4ccc(-c5ccccc5)nc4c3)c3c(N)nccn32)C1 + COc1cc(Nc2ncc(F)c(Nc3ccc4c(n3)NC(=O)C(C)(C)O4)n2)cc(OC)c1OC [Tamatinib] (first compound 2 µM, partner dose 2 µM) | 49.1 | 59.7 | 65.7 | 39.2 | 69.1 | 61.9 | 63.5 | 61 | 17.3 | 53.3
14 | COc1cc([C@@H]2c3cc4c(cc3[C@@H](O[C@@H]3O[C@@H]5CO[C@@H](C)O[C@H]5[C@H](O)[C@H]3O)[C@H]3COC(=O)[C@H]23)OCO4)cc(OC)c1O [etoposide] + CC(=O)O[C@@]12CO[C@@H]1C[C@H](O)[C@@]1(C)C(=O)[C@H](O)C3=C(C)[C@@H](OC(=O)[C@H](O)[C@@H](NC(=O)OC(C)(C)C)c4ccccc4)C[C@@](O)([C@@H](OC(=O)c4ccccc4)[C@H]21)C3(C)C [Docetaxel] (first compound 0.1 µM, partner dose 0.0005 µM) | 12.1 | 24 | 52.2 | 34 | 57.5 | 66.2 | 35.9 | 33.4 | 56.5 | 44.2
15 | COc1cc([C@@H]2c3cc4c(cc3[C@@H](O[C@@H]3O[C@@H]5CO[C@@H](C)O[C@H]5[C@H](O)[C@H]3O)[C@H]3COC(=O)[C@H]23)OCO4)cc(OC)c1O [etoposide] + C[C@@H](Oc1cc(-c2cnn(C3CCNCC3)c2)cnc1N)c1c(Cl)ccc(F)c1Cl [Crizotinib] (first compound 0.1 µM, partner dose 1 µM) | 51.9 | 48.9 | 89.2 | 64.5 | 78.3 | 68.1 | 55.5 | 63.9 | 70.2 | 66.5
16 | COc1cc([C@@H]2c3cc4c(cc3[C@@H](O[C@@H]3O[C@@H]5CO[C@@H](C)O[C@H]5[C@H](O)[C@H]3O)[C@H]3COC(=O)[C@H]23)OCO4)cc(OC)c1O [etoposide] + CN(c1ncccc1CNc1nc(Nc2ccc3c(c2)CC(=O)N3)ncc1C(F)(F)F)S(C)(=O)=O [PF562271] (first compound 0.1 µM, partner dose 0.4 µM) | 72.9 | 58.5 | 85 | 66 | 73.1 | 59.1 | 65.6 | 50.4 | 75.4 | 98.8
17 | Cn1cnc2c(F)c(Nc3ccc(Br)cc3Cl)c(C(=O)NOCCO)cc21 [selumetinib] + COc1ccc(C2=N[C@@H](c3ccc(Cl)cc3)[C@@H](c3ccc(Cl)cc3)N2C(=O)N2CCNC(=O)C2)c(OC(C)C)c1 [Nutlin-3] (first compound 0.075 µM, partner dose 0.5 µM) | 49.5 | 40.1 | 47.2 | 63.1 | 86.5 | 60.9 | 81.2 | 75.1 | 73.1 | 58.1
18 | COc1cc([C@@H]2c3cc4c(cc3[C@@H](O[C@@H]3O[C@@H]5CO[C@@H](C)O[C@H]5[C@H](O)[C@H]3O)[C@H]3COC(=O)[C@H]23)OCO4)cc(OC)c1O [etoposide] + O=C(CCCCCCC(=O)Nc1ccccc1)NO [vorinostat] (first compound 0.1 µM, partner dose 0.4 µM) | 55.3 | 53.3 | 77.8 | 74 | 65.8 | 79.7 | 65.9 | 69.7 | 67 | 78.9
19 | Cn1cnc2c(F)c(Nc3ccc(Br)cc3Cl)c(C(=O)NOCCO)cc21 [selumetinib] + C=CCNC1=C2C[C@@H](C)C[C@H](OC)[C@H](O)[C@@H](C)/C=C(\C)[C@H](OC(N)=O)[C@@H](OC)/C=C\C=C(/C)C(=O)NC(=CC1=O)C2=O [Tanespimycin] (first compound 0.075 µM, partner dose 0.01 µM) | 34 | 41.7 | 44.2 | 54.4 | 98.4 | 50.4 | 20.1 | 65.4 | 42.2 | 43
